The record followed here is ChEMBL document CHEMBL5308541, “MAIP: An Open-Source Tool to Enrich High-Throughput Screening Output and Identify Novel, Druglike Molecules with Antimalarial Activity” (ACS Med Chem Lett, 2023).

The whole screen tested about 150,000 compounds, of which about 540 (0.36%) showed an effect of 50% or more. Some of the results follow.

The test has as its system Plasmodium falciparum. Kind of test: Primary screen in NF54 nanoGlo assay, in single point, at 2uM, 72h; a lower Z score goes with more inhibition. It is filed as functional, Erythrocyte. The following applies: timepoint 72 hour.
A word on the % Inhibition: it is the change of the read-out against control, counted positive when it falls. With `CN(Cc1ccnc2ccccc12)C[C@H]1CCN(c2ccccc2)C1`, the “% Inhibition” value is -12% and the Z score is listed as 1.86.
On the same counts, the results for `COc1ccc2cc(-c3c(-c4ccccc4)ncn3C[C@H](O)CO)ccc2c1` are -7% and 1.44.
With `FC(F)Oc1ccc(NC2CCN(C[C@H]3CCOC3)CC2)nc1`, the “% Inhibition” value is given as -11% and the Z score was found to be 2.13.
On the same counts, the results for `Cc1nc(N2CCC(N3CCCN(c4ccccc4)CC3)CC2)nc2ccc(F)cc12` are -12% and 2.03.
Take `c1cnc(NCc2ccc3occc3c2)nc1`: the “% Inhibition” value was -2% and the Z score is recorded as 0.33.
The matching figures for `O=S(=O)(c1cc(C(F)(F)F)ccc1C(F)(F)F)N1CCC(c2c[nH]c3ccc(F)cc23)CC1`: 11% and -1.91.
The matching figures for `CN1CCN(c2ccc(NCc3c[nH]nc3-c3cccnc3)cn2)CC1`: -15% and 2.56.
On the same counts, the results for `Cc1nccn1-c1ccc(CNc2cc(C3CC(N)C3)nc(N)n2)cc1` (stereo not given) are -1% and 0.13.
With `Nc1ccncc1-c1cccc(C(=O)NC[C@H]2CCN(C3CCCC3)C2)c1`, the “% Inhibition” value is given as -6% and the Z score is recorded as 1.28.
The matching figures for `O=C(NCC(F)(F)C(F)F)c1cccc(Br)c1F`: -3% and 0.67.
On the same counts, the results for `COc1cc(-c2nc3sccn3c2Nc2cccc(C)c2)ccc1O` are -7% and 1.29.
The matching figures for `CC(C)CN1CCC(CNc2nnc(CN)o2)CC1`: -4% and 0.65.
Consider `O=C(CCNCc1ccc(-c2ccncc2)cc1F)N1CCCCC1`, for which the “% Inhibition” value was -6% and the Z score was 0.99.
The matching figures for `COc1ccc(-c2ccno2)cc1S(=O)(=O)N1CCCN(c2ccncc2C)CC1`: -3% and 0.52.
On the same counts, the results for `Fc1cncc(F)c1CN1CCC(Oc2cnccn2)CC1` are 1% and -0.19.
The matching figures for `Cc1nonc1CN1CC[C@@H](N(C)CCO)[C@H]1C`: 2% and -0.37.
On to `Cc1ccc(N2CCOCC2)cc1NCc1cnc(N2CCN(C)CC2)nc1`, for which the “% Inhibition” value was -16% and the Z score came to 2.49.
The matching figures for `N#Cc1ccnc(N2CC3(CCC3)C2C2CCCO2)n1` (stereo not given): -7% and 1.22.
The matching figures for `C#CCN1CCC(NC[C@H]2CCCN(CCOC)C2)CC1`: -15% and 2.51.
As for `CCN(C)CC(O)CN1CCC(Oc2cccnc2N2CCCC2)C1` (stereo not given), the “% Inhibition” value is -5% and the Z score stood at 1.05.
The matching figures for `CN(C)c1nc2ccc(OCCN3CCOCC3)cc2s1`: -4% and 0.7.
On the same counts, the results for `Cc1nc(N)cc(N2CCN(CCN3CCCC3)CC2)n1` are -5% and 0.72.
The matching figures for `CC[C@]1(C(N)=O)CCCN(Cc2c[nH]c3ccccc23)C1`: -2% and 0.43.
Turning to `Nc1nc(N2CCC(n3cc(-c4ccccc4)nn3)CC2)c2cn[nH]c2n1`, the “% Inhibition” value is recorded as -10% and the Z score is listed as 1.77.
For `Cc1c(-c2cc(C(=O)NC3CCN(c4cnccn4)CC3)n[nH]2)cnn1C`, the “% Inhibition” value was found to be 12% and the Z score is given as -2.66.
On the same counts, the results for `CC(C)(C)C(=O)Nc1ccc(NC(=O)c2ccc3[nH]ccc3c2)cc1Cl` are 3% and -0.48.
The matching figures for `Cc1[nH]nc2ncc(NC(=O)N[C@H]3CCN(c4ccccn4)C3)cc12`: 3% and -0.46.
On the same counts, the results for `O=C1OCCCN1CCNc1nccc(N2CCC(O)CC2)n1` are 8% and -1.17.
For the compound `CCCc1cc(N2CCN(C3CCN(CC(C)C)CC3)CC2)nc(C)n1`, the “% Inhibition” value is -4% and the Z score was 0.7.
For the compound `Nc1nc(NCc2cc(F)c(F)cc2F)c2cn[nH]c2n1`, the “% Inhibition” value is -9% and the Z score is reported as 1.63.
On the same counts, the results for `CN1CCN(CC2(CNC(=O)c3cccc([C@H]4CCCNC4)c3)CC2)CC1` are 2% and -0.52.
The matching figures for `Cc1cc(CNC2CCN(C)CC2)ccc1Br`: 4% and -0.66.
The matching figures for `Cc1cccc(CN2CCC(NC(=O)c3ccnc(N4CCO[C@@H](C)C4)c3)CC2)c1`: 4% and -0.75.
For `CCN1CCC(Nc2ccnc(NC3CCN(CC)CC3)n2)CC1`, the “% Inhibition” value came out at 8% and the Z score was -1.81.
With `Cc1cc(N2CCCCC2)nc(NCCNC(=O)Cc2c[nH]c3ccccc23)n1`, the “% Inhibition” value is reported as 3% and the Z score is -0.57.
The matching figures for `FC(F)c1nnc2ccc(NC3CCN(C[C@H]4CCOC4)CC3)nn12`: -4% and 0.73.
With `c1ccc(-c2cnc(N3CCC(c4c[nH]c5ncccc45)CC3)s2)cc1`, the “% Inhibition” value is on record as -3% and the Z score was found to be 0.52.
The matching figures for `c1cc(CNCCCc2nc3ccccc3[nH]2)c2c(c1)OCCO2`: -15% and 2.55.
Turning to `Cc1c(C(=O)N[C@H]2C[C@@H](c3cc(=O)[nH]c(N)n3)C2)[nH]c2ccc(F)cc12`, the “% Inhibition” value is -1% and the Z score was found to be 0.18.
On the same counts, the results for `O=C(NCC1CC1)c1cc2c(OCc3ccc(Cl)cc3)cccc2[nH]1` are 51% and -9.
The matching figures for `CC(C)c1ccc(C#N)c(NCCCN2CCC[C@H](O)C2)n1`: -2% and 0.51.
In the case of `CN1CCN(C2(CNC(=O)[C@H]3CC34CCNCC4)CCCC2)CC1`, the “% Inhibition” value is on record as -7% and the Z score came to 1.47.
The matching figures for `CNc1nc(N2CCN(CC(=O)NC3CCCCC3)CC2)nc2ccccc12`: 80% and -14.07.
The matching figures for `CC(C)c1noc(C2CCN(Cc3cc(O)c4cccc(F)c4n3)CC2)n1`: -3% and 0.54.
On the same counts, the results for `COc1ccc2nc3cc(Cl)ccc3c(O)c2c1` are 65% and -9.86.
Regarding `Cc1ccc2nc(CCCNC3CCN(c4cc(C)nc(N)n4)CC3)oc2c1`, the “% Inhibition” value came out at 40% and the Z score is recorded as -6.03.
The matching figures for `CN1CCN(C2COCC2NC2CCN(C(=O)c3ccncc3)CC2)CC1` (stereo not given): -4% and 0.85.
The matching figures for `COC[C@H](CO)NCCC(CC(C)(C)C)NC(=O)OC(C)(C)C` (stereo not given in full): -5% and 1.17.
The matching figures for `O=C(NCCn1cc(-c2ccoc2)cn1)c1cc2ccccc2[nH]1`: -2% and 0.31.
On to `COc1ccc2oc(C(C)NC(=O)N3CCOC(c4ccc(F)c(F)c4)C3)c(C)c2c1` (stereo not given), for which the “% Inhibition” value is -4% and the Z score was 0.71.
On the same counts, the results for `CCOc1ccc2nc(C)c(CCC(C)=O)c(O)c2c1` are 2% and -0.31.
The matching figures for `C[C@@H](c1cccc(-c2[nH]nc3ncccc23)c1)N1CCCC1`: -7% and 1.25.
On the same counts, the results for `CC(C)n1ncnc1-c1cccc(C(=O)N(C)Cc2cc(C3CC3)on2)c1` are -4% and 0.83.
In the case of `COc1cnc(NC(=O)NCC[C@@]2(O)C(=O)Nc3ccccc32)s1`, the “% Inhibition” value amounted to 1% and the Z score is -0.24.
As for `CC(=O)NC(C)(C)c1noc(-c2cnn(-c3ccc(Br)cc3)c2)n1`, the “% Inhibition” value is recorded as -16% and the Z score came out at 2.79.
